In publication PMC6919601, “Identification of Plasmodium dipeptidyl aminopeptidase allosteric inhibitors by high throughput screening” (PLoS ONE, 2019):
“And” between values parts separate entries of the source, which are not always exact repeats. Equal entries are not always repeated. Among all 110,000 compounds or so, about 230 (0.21%) showed an effect of 50% or more. This is one part of the list.

These compounds were tested against DPAP1 (Plasmodium falciparum, UniProt Q8IIJ9) (assay: primary screen, percent inhibition; read by cleavage of a fluorogenic dipeptide substrate; higher = more effect of the substance).
Sequence of DPAP1 (Q8IIJ9 whole entry, looked up): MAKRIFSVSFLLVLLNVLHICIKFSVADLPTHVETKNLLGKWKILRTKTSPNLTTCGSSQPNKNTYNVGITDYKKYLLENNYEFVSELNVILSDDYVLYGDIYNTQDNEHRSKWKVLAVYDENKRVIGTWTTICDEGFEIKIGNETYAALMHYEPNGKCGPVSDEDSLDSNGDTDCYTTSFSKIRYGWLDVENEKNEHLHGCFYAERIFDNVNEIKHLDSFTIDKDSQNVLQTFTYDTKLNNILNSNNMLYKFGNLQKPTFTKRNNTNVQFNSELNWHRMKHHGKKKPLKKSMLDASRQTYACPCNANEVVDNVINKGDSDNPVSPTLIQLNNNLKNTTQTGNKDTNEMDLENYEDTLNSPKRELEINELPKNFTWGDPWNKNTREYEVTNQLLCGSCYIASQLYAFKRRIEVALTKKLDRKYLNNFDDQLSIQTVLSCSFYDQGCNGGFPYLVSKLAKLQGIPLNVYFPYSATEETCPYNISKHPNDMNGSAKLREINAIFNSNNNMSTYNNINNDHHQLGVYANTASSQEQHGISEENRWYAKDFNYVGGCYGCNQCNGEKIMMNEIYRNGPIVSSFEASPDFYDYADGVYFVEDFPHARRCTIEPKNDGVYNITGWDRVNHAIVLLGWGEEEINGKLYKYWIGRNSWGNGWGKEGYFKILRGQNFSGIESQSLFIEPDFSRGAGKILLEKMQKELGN
Set-up: species or system P. falciparum D10 trophozoite lysates; single well
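Note: 30 min substrate incubation versus DMSO and 10 µM JCP410 controls.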

| Compound | % Inhibition @ 10 uM |
| --- | --- |
| Cc1c(CN2CCN(C/C=C/c3ccccc3)CC2)c(=O)n(-c2ccccc2)n1C | -2.03% |
| CCOc1ccccc1/C=C1\N=C(c2ccc(Cl)c(Cl)c2)OC1=O | -2.6% |
| O=C(NCc1ccc(F)cc1)C1CCC(=O)N1CCc1ccccc1 (centres unmarked) | -1.79% |
| CN1C(=O)C(=Cc2cc(Br)ccc2OCc2ccc(Cl)cc2Cl)C(=O)N(C)C1=O | 23.7% |
| O=C1c2ccccc2C(=O)N1c1ccc(S(=O)(=O)Nc2ccc(F)cc2)cc1 | -1.04% |
| O=C(O)C1Cc2c([nH]c3ccccc23)C(c2cc(Cl)cc(Cl)c2O)N1 (centres unmarked) | -3.62% |
| CC(=O)c1cc(-c2ccccc2)n(CC(=O)NCc2ccc(C)cc2)c1C | 3.07% |
| CO/C(O)=C1/C(C)=NC2=C(C(=O)CC(c3ccc4c(c3)OCO4)C2)C1c1ccc(Br)cc1 (centres unmarked) | 2.7% |
| COc1ccc(CCNCc2c(C(=O)O)n(Cc3ccc(F)cc3)c3cc(C)ccc23)cc1OC | 0.16% |
| Cc1ccc(C2CC(C(F)(F)F)n3ncc(C(=O)NCCN4CCOCC4)c3N2)cc1 (centres unmarked) | 7.93% |
| O=C(NCc1ccc2c(c1)OCO2)c1ccc(CS(=O)c2ccccc2)o1 (centres unmarked) | 0.458% |
| Cc1c2ccc3ccccc3c2s[n+]1CCCS(=O)(=O)O | -4.78% |
| Cc1nnc2ccc(N3CCN(Cc4ccc5c(c4)OCO5)CC3)nn12 | 2.72% |
| O=C(Cn1ncc2c(=O)oc3ccccc3c21)NCCOC1C2CC3CC(C2)CC1C3 (centres unmarked) | 7.39% |
| CCOc1ccccc1C(=O)N1CCN(c2cccc(Cl)c2)CC1 | 5% |
| Cc1cccc(C(=O)Nc2ccccc2C(N)=O)c1 | -5.94% |
| O=[N+]([O-])c1ccc(Cl)cc1CN1CCC(Cc2ccccc2)CC1 | 3.01% |
| CC(C)N(CC#CCC1(O)c2ccccc2-c2ccccc21)C(C)C | 5.93% |
| CC1CN(C)c2ccccc2-[n+]2ccsc21 (centres unmarked) | -6.81% |
| OC(Cn1cccc1)c1ccccc1 (centres unmarked) | 2.99% |
| CCSc1nc2sc3c(c2c(=O)n1-c1ccccc1)CCN(C)C3 | -3.44% |
| N#CCNC(=O)[C@H](CSCc1ccccc1)NC(=O)c1ccc(F)cc1 | 1.35% |
| CCN1CCCC(OC(=O)NC2CCCCC2)C1 (centres unmarked) | 3.72% |
| Cc1sc2nc(-c3ccc(N(C)C)c(Br)c3)nc(O)c2c1C | 11.8% |
| Cn1cc(/C=C2/SC(=O)N(CC(=O)Nc3ccccc3)C2=O)c2ccccc21 | -5.82% |

| Compound | % Inhibition @ 10 uM |
| --- | --- |
| Cc1ccc2nc(NCc3ccccc3)c(/C=N/Cc3ccccc3)c(=O)n2c1 | -0.178% |
| Cc1ccc(C2C(C(=O)c3cccs3)=C(O)C(=O)N2CCN2CCOCC2)cc1 (centres unmarked) | 0.367% |
| CCc1cc2c(cc3c(=O)n(CC(=O)NCCc4ccc(OC)c(OC)c4)nc(CC)n32)s1 | 3.29% |
| COc1ccc(C2C(C(=O)c3cc4ccccc4o3)=C(O)C(=O)N2CCCN2CCOCC2)cc1 (centres unmarked) | -7.1% |
| O=C(CCc1nc2ccccc2[nH]1)NCCc1ccc(Cl)cc1 | -0.999% |
| O=C(COc1ccc(Cl)cc1)N1CCCCC1 | 4.54% |
| COc1ccc(C2C(C#N)=C(N)Oc3c2c(=O)oc2ccccc32)c(OC)c1 (centres unmarked) | 2.31% |
| Cn1c(=O)c2c(n3ncnc13)NC(=O)CC2c1ccccc1F (centres unmarked) | -1.05% |
| Cc1cc(C)cc(NC(=O)C23CCC(C)(C(=O)C2=O)C3(C)C)c1 (centres unmarked) | 14.3% |
| CN1C(=O)C(=Cc2ccc(-c3ccccc3)o2)C(=O)N(C)C1=O | 2.26% |
| CCc1c(C)c2ccc3c(c2oc1=O)CN(c1ccccn1)CO3 | 2.65% |
| Cc1ccc(C(C)C)c(OCC(=O)Nc2ccc(Cl)cc2)c1 | 1.27% |
| COc1ccccc1-c1ccc(/C=C2\N=C(c3ccccc3)OC2=O)o1 | 9.39% |
| Cc1cccc(N2CCN(Cc3c(C)[nH]c4ccccc34)CC2)c1C | -2.56% |
| O=C(NCCc1ccccc1)c1ccc2oc(=O)c(S(=O)(=O)c3ccccc3)cc2c1 | -1.3% |
| O=C(Nc1ccc(S(=O)(=O)N2CCCCC2)cc1)c1ccco1 | -4.43% |
| Cc1nc([N+](=O)[O-])cn1-c1ccc(N)cc1 | -7.98% |
| O=C(c1nn2c(C(F)(F)F)cc(-c3ccccc3)nc2c1Cl)N1CCCc2ccccc21 | 3.32% |
| CCn1c(NCc2ccccn2)nc2ccccc21 | 3.48% |
| CN(C)CCCN(CCCN(C)C)CC1CCCCC1 | -0.0494% |
| CCCNC(=S)N1CC2(C)CN(C(=O)C(=O)OC)CC(C)(C1)C2=O | 4.66% |
| O=C(CSc1ccc(-c2cccs2)nn1)NCC1CCCO1 (centres unmarked) | -5.57% |
| Cc1cc(O)nc(SCCOc2ccc(Cl)cc2)n1 | 4.98% |
| CC(C)CNC(=O)CCc1nc(-c2ccc(Cl)cc2)no1 | 3.62% |
| Fc1ccc(N2CCN(Cc3c(F)cccc3Cl)CC2)cc1 | 0.472% |

| Compound | % Inhibition @ 10 uM |
| --- | --- |
| CC(C)CN(CC(C)C)S(=O)(=O)c1ccccc1[N+](=O)[O-] | 2.6% |
| COc1ccc(NS(=O)(=O)c2ccc(NC(=O)c3cccc(C)c3)cc2)cc1 | 3.35% |
| CCCCSC1=C(C#N)C(c2ccccc2OC)C(C#N)C(=O)N1 (centres unmarked) | 3.06% |
| O=C(NCc1ccccc1)c1cccc(S(=O)(=O)N2CCCCCC2)c1 | 0.812% |
| O=C(Nc1ccc(Cl)cn1)C(c1ccccc1)c1ccccc1 | 1.76% |
| Cc1sc(N)c(C(N)=O)c1-c1ccc(C(C)C)cc1 | 0.121% and 1.19% |
| CC(=O)N[C@@H](CCc1ccccc1)C(=O)N[C@@H](CC(C)C)C(=O)N[C@H](Cc1ccccc1)C(=O)N[C@H](/C=C/S(C)(=O)=O)CC(C)C | -4.82% |
| O=C(/C=C/c1ccccc1Cl)Nc1ccccc1Cl | 1.83% |
| COc1ccc(/C=C2\N=C(c3ccc(Cl)c(Cl)c3)OC2=O)cc1 | -5.99% |
| CC(C)CCNC(=O)c1nn(C)c2c1CS(=O)(=O)c1ccccc1-2 | 2.58% |
| COc1cccc(OC)c1C(=O)N1CCN(C(=O)c2ccccc2F)CC1 | 2.93% |
| Cc1ccc(S(=O)(=O)CCSc2cccc(C(=O)Nc3ccccc3)c2)cc1 | -3.55% |
| CC(Nc1nc(N2CCN(CCO)CC2)nc2ccccc12)c1ccccc1 (centres unmarked) | -10.8% |
| C=CCn1c(SCCCc2ccccc2)nc2c1c(=O)n(C)c(=O)n2C | 3.05% |
| CCOc1ccc(C2(c3ccccc3OC)CCCC2)cc1 | -3.32% |
| CCOC(=O)c1cnc(SCc2nc(-c3ccc(Cl)cc3)oc2C)nc1N | 1.27% |
| COc1ccc(C(=O)n2nc3c(c2-c2ccc(OC)cc2)COC(C)(C)C3)cc1 | 3.59% |
| O=C(c1ccccc1Cl)N1N=C(c2ccccc2)CC1c1nc2ccccc2[nH]1 (centres unmarked) | 1.24% |
| CCCCc1nnc2sc(NC(=O)c3ccccc3)nn12 | -3.51% |
| O=c1c(Oc2ccc(-c3ccccc3)cc2)coc2cc(O)ccc12 | -5.49% |
| CC(=O)ON1C(=O)C2C3c4ccccc4C(c4ccccc43)C2C1=O (centres unmarked) | 38.9% |
| N/C(=N\OCc1cccc(C(F)(F)F)c1)c1nonc1N | 13.6% |
| c1ccc(Nc2nc(-c3ccncc3)cs2)cc1 | -4.98% |
| O=C(CSc1nnc(-c2ccccc2)c(-c2ccccc2)n1)Nc1nccs1 | -2.81% |
| CN(c1ccccc1)S(=O)(=O)c1ccc(Cl)c(C(=O)Nc2cccc(O)c2)c1 | -5.41% |

| Compound | % Inhibition @ 10 uM |
| --- | --- |
| Cc1ccc(OCc2ccc(C(=O)Nc3ncc(Br)s3)o2)cc1C | 3.72% |
| O=C(O)CCCN1C(=O)C2C3CC(C2C1=O)C1C(c2ccc(O)cc2)c2sc(O)nc2SC31 (centres unmarked) | -7.27% |
| Cc1c(Cl)cccc1-n1nc(C)c2c(C)cc(=O)n(CC(=O)NCc3ccco3)c21 | 1.11% |
| CC(=O)c1ccc(N2CCN(Cc3ccc(C(=O)O)cc3)CC2)cc1 | 2.26% |
| O=C(NCc1ccco1)c1ccc(NS(=O)(=O)c2cccc(F)c2)cc1 | 0.214% |
| CCOc1ccc(Cl)cc1S(=O)(=O)Nc1ccncc1 | -4.26% |
| Fc1ccc(Cc2nnc(Cc3ccccc3)o2)cc1 | 3.51% |
| COc1cc(NC(=O)/C(=C/c2ccco2)NC(=O)c2ccc(C)c(C)c2)cc(OC)c1 | 8.68% |
| CCc1nnc(NC(=O)CSc2nccn2C)s1 | 1.13% |
| Clc1cccc(CNC2CCN(CCc3ccccc3)CC2)c1 | -4.75% |
| CC(C)CCn1c(CN2CCCCC2C)nc2c1c(=O)n(C)c(=O)n2C (centres unmarked) | -1.43% |
| COc1ccc(CN2C(=O)CN(C3CCCCCC3)C(=O)C2c2ccc(OC(C)C)c(OC)c2)cc1 (centres unmarked) | 2.79% |
| O=C(c1ccncc1)N1CCN(Cc2cccc3ccccc23)CC1 | 3.95% |
| COc1ccc(CCNc2nc(Cl)nc(N3CC4CC(C3)c3cccc(=O)n3C4)n2)cc1OC (centres unmarked) | 2.7% |
| CC(=O)Nc1ccc(NC(=O)[C@@H]2C3C=CC(C3)[C@@H]2C(=O)O)cc1 (some centres unmarked) | 2.38% |
| O=C(O)c1cccc(COc2cc(Cl)ccc2Cl)c1 | -4.05% |
| Cc1nc2ccc(C(=O)Nc3ccc(N(C)C)cc3)cc2s1 | -2.09% |
| COCCNc1cc(C)nc2c(-c3ccc(Cl)cc3)c(C)nn12 | 5.47% |
| COc1ccc(C(=O)Cn2c3ccccc3n3nc(-c4ccccc4)nc23)cc1OC | -7.38% |
| COC(=O)C1=C(C)N(C)C(=O)NC1c1ccc(OC)cc1 (centres unmarked) | -0.13% |
| O=C(O)CCC1=NN2C=Nc3sc4c(c3C2NC1=O)CCCC4 (centres unmarked) | -7.35% |
| CCCc1n[nH]c(SCc2cc(=O)n3nc(C)sc3n2)n1 | -3.57% |
| Cc1ccccc1Cn1c(C)c(CNCCc2cccs2)c(C(=O)O)c1C | -3.67% |
